Test results from PubChem BioAssay AID2147 (National Center for Advancing Translational Sciences (NCATS), 2009).
“And” between values parts separate entries of the source, which are not always exact repeats. Equal values may be shown once. About 3,600 (1.6%) of roughly 230,000 compounds were called active. Inconclusive results, whose numbers are uncertain, are shown with a selection of clear calls. Calls follow the shape of the dose curve; as a rule, active = well fitted inhibition curve with a large enough effect (not every such curve was filed as active); inconclusive = small, poorly fitted or top-dose-only effect, or another doubt; inactive = no such curve, though single readings can be large or run the other way. Potencies of inconclusive entries are doubtful fits and often do not repeat. Some structures have more than one record in an assay (separate samples or runs), and their calls can disagree.

Target: Lysine-specific demethylase 4E (Homo sapiens) (UniProt B2RXH2)
Test: qHTS Assay for Inhibitors of Human Jumonji Domain Containing 2E (JMJD2E)
Details: JMJD2E catalytic domain, FDH-coupled NADH fluorescence (FDH is formaldehyde dehydrogenase); series mostly up to 57.1 µM
Also: nearly all actives have a fitted effect of over 50% in size.
Potency is read from the fitted curve at half-maximal effect; tags tell the direction and shape of the fitted curve.

Chain of UniProt B2RXH2 (B2RXH2 whole entry, looked up, the tested form may be a part): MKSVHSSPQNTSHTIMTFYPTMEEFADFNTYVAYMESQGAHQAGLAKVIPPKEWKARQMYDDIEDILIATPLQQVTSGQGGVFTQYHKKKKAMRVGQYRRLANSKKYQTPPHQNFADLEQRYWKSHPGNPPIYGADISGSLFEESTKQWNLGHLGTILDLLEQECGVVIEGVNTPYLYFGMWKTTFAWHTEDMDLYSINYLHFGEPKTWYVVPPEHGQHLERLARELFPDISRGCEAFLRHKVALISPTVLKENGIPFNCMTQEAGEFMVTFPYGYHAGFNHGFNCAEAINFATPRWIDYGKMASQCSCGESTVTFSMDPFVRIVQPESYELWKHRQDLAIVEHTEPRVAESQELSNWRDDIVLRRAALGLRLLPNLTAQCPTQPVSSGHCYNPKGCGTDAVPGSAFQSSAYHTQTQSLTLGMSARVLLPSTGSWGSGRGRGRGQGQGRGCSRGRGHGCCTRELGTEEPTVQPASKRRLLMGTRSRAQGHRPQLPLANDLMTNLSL

Compound | Potency
Cc1ccc(C(=O)NCc2n[nH]c(=S)n2-c2ccccc2)cc1[N+](=O)[O-] | inactive
COC(=O)c1cccc(C(=O)Nc2cnc3ccccc3c2)n1 | inconclusive: 35.5 µM [inhibitor, single point]
O=c1nc(-c2ccccc2)n(-c2ccccc2)[nH]1 | inconclusive: 35.5 µM [inhibitor, single point]
COC(=O)c1ccc(C(NC(=O)OCc2ccccc2)/C(=C/[C@@H](C)C(=O)NCc2cc(C)n(C)n2)c2cccnc2)cc1 (stereo partly drawn) | inactive
COCCNS(=O)(=O)c1ccc2c(c1)C(=NO)c1cc(S(=O)(=O)NCCOC)ccc1-2 | inconclusive: 28.2 µM [inhibitor, partial curve]
CCCCSc1cc(=O)[nH]c(N)n1 | inconclusive: 3.55 µM [inhibitor, single point]
CCOC(=O)NC(=O)COC(=O)CNC(=O)c1cccc(OC)c1 | inconclusive: 39.8 µM [inhibitor, single point]
Cc1ccccc1-n1c(N)c(C(=O)Nc2ccc(F)cc2)sc1=S | inactive
CNC(=O)CSc1nnc(COc2ccc([N+](=O)[O-])cc2)n1C | inconclusive: 39.8 µM [inhibitor, single point]
O=C1/C(=C/c2ccc([N+](=O)[O-])cc2)C=C(c2ccccc2)N1c1ccc(O)cc1 | inactive
O=C(CN1C(=O)c2cccc3cccc1c23)Nc1ccccc1 | inconclusive: 35.5 µM [inhibitor, partial curve]
O=C(/C=C\C=C/c1ccc2c(c1)OCO2)N1CCCCC1 | inconclusive: 14.1 µM [inhibitor, partial curve]
CCOC(=O)CN1C(=O)Nc2ccc(Br)cc2C1c1ccccc1 (stereo not drawn) | inactive
CN(C(=O)CSc1nc2c(cnn2-c2ccccc2)c(=O)[nH]1)C1CCS(=O)(=O)C1 (stereo not drawn) | inactive
O=C(C1CCCN(S(=O)(=O)c2cccc3nonc23)C1)N1CCN(c2ccccc2Cl)CC1 (stereo not drawn) | inconclusive: 39.8 µM [inhibitor, single point]
COC(=O)c1ccccc1NC(=O)CSc1nnnn1-c1ccc(C)cc1C | inactive
Cc1nc2nc(SCC(=O)NCCN3CCOCC3)nn2c(C)c1Cc1ccccc1 | inactive
O=C(Nc1ccc(Cl)cc1)c1cc(S(=O)(=O)N2CCOCC2)cs1 | inactive
O=C(OCn1ncc(Cl)c(Cl)c1=O)c1ccc(F)cc1 | inactive
Cc1c(NC(=S)NNC(=O)CCC(=O)O)c(=O)n(-c2ccccc2)n1C | inconclusive: 12.6 µM [inhibitor, partial curve]
O=C(CSc1nnnn1C1CCCC1)N1CCCc2ccccc21 | inactive
c1csc(-c2nnc(N3CCOCC3)c3ccccc23)c1 | inactive
O=C(Nc1ccc(-c2nnc(-c3ccccc3)o2)cc1)C1CCCO1 (stereo not drawn) | inconclusive: 28.2 µM [inhibitor, partial curve]
CN1CCc2c(n(CC(O)CN3CCN(CCO)CC3)c3ccccc23)C1=O (stereo not drawn) | inconclusive: 31.6 µM [inhibitor, partial curve]
Cc1ccc(OCC(=O)Nc2ccc(-c3nc4ncccc4o3)cc2)c(C)c1 | inconclusive: 22.4 µM [inhibitor, partial curve]

Compound | Potency
O=S(=O)(Nc1nc2ccccc2nc1Nc1ccc(N2CCOCC2)cc1)c1cc(Cl)ccc1Cl | inactive
CC(C)(C)N(Cc1cc2ccccc2[nH]c1=O)C(=O)C1CCCCC1 | inconclusive: 31.6 µM [inhibitor, single point]
COc1ccc(-n2c(-c3ccc(C)cc3)n[nH]c2=S)cc1 | inactive
Cn1c(=O)oc2cc(S(=O)(=O)Nc3ccc4c(c3)OCO4)ccc21 | inactive
COCCN(CCOC)c1nc(N)c2c(N)nc3c(c2c1C#N)CC(=O)N3Cc1ccc(Cl)cc1 | inconclusive: 0.794 µM [inhibitor, full curve]
CCOC(=O)c1c(NC(=O)c2cccs2)sc2c1CCC2 | inconclusive: 35.5 µM [inhibitor, single point]
Cc1cccc(-n2c(-c3ccco3)n[nH]c2=S)c1 | inconclusive: 28.2 µM [inhibitor, single point]
O=C(/C=C/c1ccccc1)NC1CCSC1=O (stereo not drawn) | inactive
Cc1cccn2c(=O)c3cc(C#N)c(=NC(=O)c4ccco4)n(Cc4ccco4)c3nc12 | inconclusive: 25.1 µM [inhibitor, partial curve]
CCN(CC)CCC[C@H](C)Nc1c2ccc(Cl)cc2nc2ccc(OC)cc12 | inconclusive: 3.55 µM [inhibitor, full curve]
O=c1c(O)c(-c2ccc(O)c(O)c2)oc2cc(O)ccc12 | inactive and active: 14.1 µM
Cc1ccc(CN2CCN(/N=C/c3cccnc3)CC2)cc1 | inconclusive: 7.08 µM [inhibitor, single point]
CNc1oc(/C=C/c2ccccc2)nc1C#N | inconclusive: 25.1 µM [inhibitor, partial curve]
COc1cccc(/C=C2\C(=O)N(c3cccc(C)c3)C(=O)c3ccccc32)c1 | inactive
CN1C(=O)c2c(sc3c2CCCC3)NC1c1ccccc1O (stereo not drawn) | inconclusive: 39.8 µM [inhibitor, single point]
CCOc1cc(-c2cc(-c3ccc(N)cc3)nc(N)c2C#N)ccc1O | inconclusive: 28.2 µM [inhibitor, partial curve]
COc1cc(NC(=O)c2ccco2)c(OC)cc1NC(=O)CSc1nnc(-c2cccs2)n1C | inconclusive: 39.8 µM [inhibitor, single point]
CCc1ccc2nc(NC(=O)c3cc(C)on3)sc2c1 | inconclusive: 35.5 µM [inhibitor, single point]
COC(=O)c1sc(S(=O)(=O)N2CCC(C(=O)O)CC2)c(C(=O)OC)c1C | inactive
Cc1ccc2nc(-c3ccc(NC(=O)COC(=O)c4ccco4)cc3)sc2c1 | inconclusive: 22.4 µM [inhibitor, partial curve]
CCOC(=O)c1[nH]cnc1C(=O)O | inconclusive: 39.8 µM [inhibitor, single point]
COc1ccc(CN2C(=O)[C@@H]3C(c4ccc(F)cc4)=NO[C@@H]3C2=O)cc1 | inactive
CCCc1nc2ccccc2c(=O)n1/N=C/c1ccc(O)cc1O | active: 31.6 µM
CCOC(=O)c1cnc2c(OC)cccc2c1N1CCN(c2ccccc2OC)CC1 | inconclusive: 31.6 µM [inhibitor, single point]
O=C(CSc1nnc(-c2ccc(O)cc2)n1Cc1ccco1)c1cccs1 | inactive

Compound | Potency
CN(C)CCNc1ncnc2c1cnn2-c1ccc(Cl)cc1 | inconclusive: 28.2 µM [inhibitor, single point]
COc1ccc(-n2cnc3c(sc4nc(N5CCOCC5)c5c(c43)CCCC5)c2=O)cc1 | inconclusive: 3.98 µM [inhibitor, single point]
O=C(NC1(O)C(=O)c2ccccc2C1=O)c1ccc(C(F)(F)F)cc1 | inconclusive: 8.91 µM [inhibitor, full curve]
Cc1cc(NC(=O)c2oc3ccccc3c2C)ccc1-n1cnnn1 | inconclusive: 39.8 µM [inhibitor, single point]
CCC(C)n1c(-c2cccc(S(=O)(=O)N(CC)CC)c2)n[nH]c1=S (stereo not drawn) | inconclusive: 39.8 µM [inhibitor, single point]
COC(=O)c1c(NC(NC(=O)c2ccccc2)(C(F)(F)F)C(F)(F)F)sc2c1CCN(C)C2 | inconclusive: 28.2 µM [inhibitor, partial curve]
C=CCOc1ccc(C2C(C(=O)c3ccco3)=C(O)C(=O)N2Cc2cccnc2)cc1 (stereo not drawn) | inconclusive: 39.8 µM [inhibitor, single point]
O=C(Cc1nc2ccccc2[nH]1)c1cccc([N+](=O)[O-])c1 | inconclusive: 28.2 µM [inhibitor, single point]
COCCNC(=O)c1ccc2c(=O)n(CCOC)c(=O)[nH]c2c1 | inconclusive: 31.6 µM [inhibitor, partial curve]
Nc1nc(NCCCN2CCOCC2)nc(Nc2ccccc2F)c1[N+](=O)[O-] | inactive
Cc1nc(Nc2ccc(Cl)c(Cl)c2)sc1C(=O)Nc1ccccc1 | inconclusive: 35.5 µM [inhibitor, single point]
COCCNS(=O)(=O)c1ccc2c3c(cccc13)C(=O)N2C | inconclusive: 31.6 µM [inhibitor, partial curve]
CC(C)Oc1ccc(-c2cc(C(=O)NCCN3CCOCC3)c3ccccc3n2)cc1 | inconclusive: 31.6 µM [inhibitor, partial curve]
O=C(N/N=C/c1ccc2c(c1)OCO2)c1ccc(Br)o1 | inactive
COC(=O)c1sccc1S(=O)(=O)Nc1ccc(N2CCCCC2)cc1 | inactive
CCCn1c(C)cc(C(=O)COc2ncnc3sccc23)c1C | inactive
CCC(=O)N1CCN(c2ccc(NC(=O)c3cc4ccccc4o3)cc2)CC1 | inactive
COc1ccc(/C=N/NC(=O)CCC(=O)Nc2ccccc2)cc1OC | inactive
CN(C)CC(C)(C)CNC(=S)Nc1ccc(S(=O)(=O)N2CCOCC2)cc1 | inactive
COc1ccc(OC)c(-c2csc(NC(=O)c3ccc4c(c3)OCO4)n2)c1 | inconclusive: 35.5 µM [inhibitor, single point]
O=S(=O)([N-]c1nc2ccccc2nc1-n1cc[n+](Cc2ccccc2)c1)c1ccc(Br)cc1 | inconclusive: 11.2 µM [inhibitor, partial curve]
COc1ccccc1-c1n[nH]c(=S)n1N | inconclusive: 10 µM [inhibitor, partial curve]
O=C(CCC(=O)N/N=C/c1cc(Cl)cc(Cl)c1O)NCc1ccccc1 | inconclusive: 22.4 µM [inhibitor, partial curve]
